# Experimental data from the supplement of paper PMC3722116.
# Experiments:
# [1] = compound: T1, C[C@H]1[C@H](OC(=O)CCC(=O)O)O[C@@H]2O[C@@]3(C)CC[C@H]4[C@H](C)CC[C@@H]1[C@@]24OO3 [artesunate]; assay: slope of the dose-response curve (dimensionless); higher = steeper concentration-effect curve
# Method: (§1)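 Hypoxanthine uptake by fresh isolates, duplicate serial dilutions, 24 h of drug plus 18 h after the label; sigmoid fit per isolate.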
# [2] = compound: T2, OC(c1cc(C(F)(F)F)nc2c(C(F)(F)F)cccc12)C1CCCCN1 [mefloquine]; assay: as above
# Method: as §1
# [3] = compound: T3, CCN(CC)CCCC(C)Nc1ccnc2cc(Cl)ccc12 [chloroquine]; assay: as above
# Method: as §1
# [4] = compound: T4, CCCCN(CCCC)CC(O)c1cc(Cl)cc2c1-c1ccc(Cl)cc1/C2=C/c1ccc(Cl)cc1 [lumefantrine]; assay: as above
# Method: as §1
# [5] = compound: T1, artesunate
# Method: as §1
# [6] = compound: T2, mefloquine
# Method: as §1
# [7] = compound: T3, chloroquine
# Method: as §1
# [8] = compound: T4, lumefantrine
# Method: as §1
Test System,slope [1],slope [2],slope [3],slope [4],EC50 of parasite growth [5],EC50 of parasite growth [6],EC50 of parasite growth [7],EC50 of parasite growth [8]
"Plasmodium falciparum isolate 133 (pfmdr1 allele: 86N, 1042N, pfmdr1 copies: 1)",6.07,4.52,4.59,2.87,0.00117 µg/mL,0.0428 µg/mL,0.145 µg/mL,0.0568 µg/mL
"Plasmodium falciparum isolate 436 (pfmdr1 allele: 86N, 1042N, pfmdr1 copies: 1)",3.32,4.34,3.71,3.49,0.000881 µg/mL,0.0119 µg/mL,0.0788 µg/mL,0.00966 µg/mL
"Plasmodium falciparum isolate 400 (pfmdr1 allele: 86N, 1042N, pfmdr1 copies: 1)",3.13,1.56,2.32,1.51,0.00017 µg/mL,0.00449 µg/mL,0.0566 µg/mL,0.0103 µg/mL
"Plasmodium falciparum isolate 43 (pfmdr1 allele: 86N, 1042N, pfmdr1 copies: 1)",5.95,1.73,4.04,1.28,0.00033 µg/mL,0.00665 µg/mL,0.173 µg/mL,0.0133 µg/mL
"Plasmodium falciparum isolate 266 (pfmdr1 allele: 86N, 1042N, pfmdr1 copies: 1)",7.85,2.56,6.34,2.37,0.000459 µg/mL,0.0184 µg/mL,0.0606 µg/mL,0.0111 µg/mL
"Plasmodium falciparum isolate 253 (pfmdr1 allele: 86N, 1042N, pfmdr1 copies: 1)",2.64,1.1,2.75,0.755,0.000403 µg/mL,0.00363 µg/mL,0.0849 µg/mL,0.00457 µg/mL
"Plasmodium falciparum isolate 333 (pfmdr1 allele: 86N, 1042N, pfmdr1 copies: 1)",9.99,2.06,5.38,2.21,0.00205 µg/mL,0.0197 µg/mL,0.218 µg/mL,0.00879 µg/mL
"Plasmodium falciparum isolate 87 (pfmdr1 allele: 86N, 1042N, pfmdr1 copies: 2)",5.73,4.11,4.28,2.04,0.000373 µg/mL,0.0623 µg/mL,0.0862 µg/mL,0.0295 µg/mL
"Plasmodium falciparum isolate 471 (pfmdr1 allele: 86N, 1042N, pfmdr1 copies: 2)",5.66,2.29,4.16,2.88,0.00184 µg/mL,0.0328 µg/mL,0.0841 µg/mL,0.0294 µg/mL
"Plasmodium falciparum isolate 224 (pfmdr1 allele: 86N, 1042N, pfmdr1 copies: 2)",4.54,3.7,4.03,2.91,0.00104 µg/mL,0.0108 µg/mL,0.0838 µg/mL,0.0208 µg/mL
"Plasmodium falciparum isolate 260 (pfmdr1 allele: 86N, 1042N, pfmdr1 copies: 1)",5.37,2.82,3.88,1.76,0.00337 µg/mL,0.04 µg/mL,0.162 µg/mL,0.0202 µg/mL
"Plasmodium falciparum isolate 465 (pfmdr1 allele: 1042D, pfmdr1 copies: 1)",1.76,2.04,3.57,1.89,0.000321 µg/mL,0.00255 µg/mL,0.184 µg/mL,0.00181 µg/mL
"Plasmodium falciparum isolate 210 (pfmdr1 allele: 86N, 1042N, pfmdr1 copies: 2)",2.82,1.5,4.14,3.82,0.000324 µg/mL,0.0116 µg/mL,0.195 µg/mL,0.0137 µg/mL
"Plasmodium falciparum isolate 250 (pfmdr1 allele: 86N, 1042N, pfmdr1 copies: 1)",3.96,2.52,4.89,2.2,0.000499 µg/mL,0.0128 µg/mL,0.113 µg/mL,0.00699 µg/mL
"Plasmodium falciparum isolate 421 (pfmdr1 allele: 86N, 1042N, pfmdr1 copies: 1)",9.96,3.33,5.8,2.33,0.000511 µg/mL,0.0407 µg/mL,0.183 µg/mL,0.0398 µg/mL
"Plasmodium falciparum isolate 35 (pfmdr1 allele: 86N, 1042N, pfmdr1 copies: 1)",4.17,2.27,2.62,1.95,0.000364 µg/mL,0.0267 µg/mL,0.106 µg/mL,0.0179 µg/mL

# Growth of fresh clinical P. falciparum isolates by hypoxanthine uptake over 42 h; for most isolates 1.6-1,647 nM mefloquine, 0.044-87 nM artesunate, 10-10,256 nM chloroquine, 2.4-236 nM lumefantrine. EC50, lower = more sensitive; slope from the same fit, higher = steeper. No active / inactive call. Fits with a coefficient of variation above 100% are not listed here; 15-28% of fits exceed 15%. Isolates are numbered anew.
